Measurements published in article PMC4336329 (PLoS ONE, 2015).
In all, about 310,000 compounds went through this assay and about 14,000 (4.5%) showed an effect of 50% or more. The effect is printed as a negative number. Some of the results follow.

The compounds below were run against human ether-à-go-go-related gene (hERG) potassium channel (human, UniProt Q12809) (assay: primary screen, population patch clamp on CHO cells stably expressing hERG).
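Also: peak tail current of the secondary pulse compared with the same well before compound.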

Sequence of human ether-à-go-go-related gene (hERG) potassium channel (Q12809 whole entry, looked up): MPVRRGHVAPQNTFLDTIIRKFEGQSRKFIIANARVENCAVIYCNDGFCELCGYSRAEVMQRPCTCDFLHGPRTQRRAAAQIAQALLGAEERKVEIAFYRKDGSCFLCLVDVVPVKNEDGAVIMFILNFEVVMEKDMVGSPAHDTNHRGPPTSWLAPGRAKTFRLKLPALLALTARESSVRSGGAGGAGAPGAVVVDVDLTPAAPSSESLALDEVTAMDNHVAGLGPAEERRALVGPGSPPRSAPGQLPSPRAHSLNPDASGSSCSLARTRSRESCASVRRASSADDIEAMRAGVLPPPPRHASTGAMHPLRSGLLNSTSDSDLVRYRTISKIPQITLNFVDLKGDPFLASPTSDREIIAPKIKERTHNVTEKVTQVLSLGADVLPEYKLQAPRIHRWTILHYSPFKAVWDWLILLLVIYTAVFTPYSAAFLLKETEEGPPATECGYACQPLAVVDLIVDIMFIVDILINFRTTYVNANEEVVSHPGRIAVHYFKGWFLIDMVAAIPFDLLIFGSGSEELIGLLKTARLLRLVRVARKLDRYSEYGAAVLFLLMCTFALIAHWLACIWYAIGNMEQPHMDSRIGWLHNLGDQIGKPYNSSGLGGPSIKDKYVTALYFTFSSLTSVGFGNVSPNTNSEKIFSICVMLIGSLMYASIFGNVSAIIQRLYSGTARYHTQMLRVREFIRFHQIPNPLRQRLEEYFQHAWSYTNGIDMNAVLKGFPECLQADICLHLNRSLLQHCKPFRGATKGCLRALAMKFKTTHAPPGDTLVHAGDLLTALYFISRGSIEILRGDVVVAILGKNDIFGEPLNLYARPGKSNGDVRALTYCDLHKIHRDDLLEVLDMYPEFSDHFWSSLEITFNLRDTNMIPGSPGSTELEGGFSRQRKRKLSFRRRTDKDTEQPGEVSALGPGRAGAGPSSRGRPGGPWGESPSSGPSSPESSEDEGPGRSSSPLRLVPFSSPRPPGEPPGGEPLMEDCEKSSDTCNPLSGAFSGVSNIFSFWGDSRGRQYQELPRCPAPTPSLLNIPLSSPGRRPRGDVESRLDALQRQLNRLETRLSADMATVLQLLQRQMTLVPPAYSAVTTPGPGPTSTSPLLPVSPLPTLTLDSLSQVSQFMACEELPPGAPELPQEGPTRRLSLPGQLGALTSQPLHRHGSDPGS

| SMILES | hERG current change (%, negative = inhibition) at 10uM |
| --- | --- |
| Cc1cc(C(=O)Nc2ccccc2Cl)n(-c2ccccc2)n1 | 12.2% |
| CCN1CCCC1CNC(=O)CN1C(=O)COc2ccc(C)cc21 (stereo not shown) | -12.4% |
| COCC(=O)Nc1cc(Cl)c(OC)cc1OC | 1.45% |
| CCCCSC1=C(C#N)C(c2ccccc2C)C(C(=O)OCC)C(=O)N1 (stereo not shown) | -3.34% |
| COc1ccc(NC(=O)CSCC(=O)N(C)Cc2cccc(OC)c2OC)cc1 | 2.8% |
| Cc1ccc(C(=O)C2CCOC(C)(C)C2)cc1 (stereo not shown) | -0.917% |
| CS(=O)(=O)N1N=C(c2ccc(Cl)cc2)CC1c1cccs1 (stereo not shown) | -17.7% |
| Cc1nnc(N2C(=O)C(O)=C(C(=O)c3ccco3)C2c2ccc(F)cc2)s1 (stereo not shown) | 13.4% |
| CCOc1cc(CNc2ccc3c(c2)OCCO3)cc(Br)c1OC | 4.78% |
| O=C(NCc1nnc2c(C(F)(F)F)cc(Cl)cn12)c1ccc(Br)o1 | 0.447% |
| Cc1cc(C)cc(NC(=S)NCc2ccc3[nH]c4c(c3c2)CCCC4)c1 | 16% |
| COc1ccc(CCNC(=O)C2CC3Cn4c(nc5cc(C)c(C)cc54)C3N2C)cc1 (stereo not shown) | -31.4% |
| O=C(NCC(=O)N1CCN(S(=O)(=O)/C=C/c2ccccc2)CC1)c1ccccc1F | 10.7% |
| CN1CCc2nc(SCC(=O)Nc3ccc(Cl)cc3)c(C#N)cc2C1 | -38.4% |
| CCSc1oc(-c2ccco2)nc1S(=O)(=O)c1ccccc1 | -12.8% |
| OC(CNC1CCCCC1)C(F)(F)F (stereo not shown) | -2.73% |
| CCC(C)c1ccccc1OCCCNC1CCCC1.O=C(O)C(=O)O (stereo not shown) | -30.1% |
| COc1ccc(OCCCC(=O)OCC(=O)c2ccc3c(c2)NC(=O)CO3)cc1 | 15.7% |
| COc1ccccc1N1CCN(C(=O)C(C)N(c2ccc(C)cc2)S(C)(=O)=O)CC1 (stereo not shown) | -8.26% |
| CC(C)=CCN1CCN(Cc2cccnc2)CC1CCO (stereo not shown) | -1.24% |
| CC(=O)c1ccc(S(=O)(=O)N2CCc3ccccc3C2)cc1 | 12% |
| O=S(=O)(NCc1ccc2c(c1)OCO2)c1ccc(F)c(F)c1 | -12.9% |
| COCCNC(=O)C1CC2Cn3c(nc4cc(C)c(C)cc43)C2N1C (stereo not shown) | 8.23% |

| SMILES | hERG current change (%, negative = inhibition) at 10uM |
| --- | --- |
| CC1(C)NC(=O)N(CCOCCSc2ccccc2)C1=O | -2.95% |
| O=C(Cc1c(F)cccc1Cl)NCc1cccnc1 | 17.7% |
| CCN1CCN(C(=O)c2c(-c3ccccc3)noc2C)CC1 | 9.72% |
| CCCN(CC(=O)Nc1ccccc1C)C(=O)c1ccc2ccccc2n1 | 2.67% |
| CCOC(=O)C1=C(C)OC(N)=C(C#N)C1c1cncc(-c2ccc(F)cc2)c1 (stereo not shown) | -36% |
| CCOC(=O)CCCNC(=O)COC(=O)c1cc2ccccc2cc1O | -3.46% |
| COc1ccc(-c2noc(CN(C)S(=O)(=O)c3ccc(Cl)cc3)n2)cc1OC | -9.85% |
| CC1CC(C)(C)NCc2ccccc21.Cl (stereo not shown) | 9.07% |
| Cc1ccc(CNC(=O)NCc2ccccc2)cc1 | 9.2% |
| C=CCOc1cccc(CNc2ccc3[nH]c(=O)[nH]c3c2)c1 | 2.07% |
| Cc1ccc2nc(C)c(C(=O)N/N=C/c3ccc(N4CCOCC4)cc3)cc2c1 | -9.11% |
| Cc1ccc(S(=O)(=O)N(CC(=O)N2CCC(C)CC2)c2cccc(C)c2)cc1 | -55.1% |
| CCOC(=O)CN1N=C(c2ccc(Cl)s2)CSC1=O | 11.5% |
| Cn1c(=O)c(=O)n(C)c2cc(S(=O)(=O)NCCOc3ccccc3Cl)ccc21 | 1.26% |
| CCOC(=O)N1CCN(C(=O)CSCC(=O)Nc2nc(-c3ccc(Cl)s3)cs2)CC1 | -19.6% |
| COc1cc2c(cc1OC)C(C1c3cc4c(cc3CCN1C)OCO4)OC2=O (stereo not shown) | 4.1% |
| COc1cccc(CN2CCN(C(=O)Nc3ccc([N+](=O)[O-])cc3)CC2)c1 | -57.2% |
| COc1ccccc1NC(=O)c1ccc(NC(=O)CNC(=O)c2ccc(OC)c(OC)c2)cc1 | -7.26% |
| COc1ccc(C2CCN(Cc3cccnc3)CC2O)cc1 (stereo not shown) | -2.49% |
| Cn1c2ccccc2c(=O)c2cc(C#Cc3ccccn3)ccc21 | -0.776% |
| Cc1ccc(C(=O)C2=C(O)C(=O)N(Cc3cccnc3)C2c2cccc([N+](=O)[O-])c2)o1 (stereo not shown) | -9.76% |
| CC(=O)c1ccc(Nc2nc(C)cc(C)n2)cc1 | 4.62% |
| COC(C/C=C\C(=O)COCc1ccccc1)OC | 10.3% |

| SMILES | hERG current change (%, negative = inhibition) at 10uM |
| --- | --- |
| Cc1ccc2c(c1)=NC(=O)/C(=C/c1c(O)[nH]c(=O)[nH]c1=O)C=2 | 11.8% |
| CCOC(=O)c1c(C)oc2ccc(OCC(=O)N(CC)CC)cc12 | -8.1% |
| COc1cc(NC(=O)C2CC2C)c(C(=O)O)cc1OC (stereo not shown) | 10.1% |
| CCOC(=O)N1CCN(C/C(C)=C/c2ccccc2)CC1 | -25.1% |
| Cc1ccccc1NC(=O)CN1C(=O)N/C(=C\c2ccc(N3CCOCC3)c(F)c2)C1=O | 10.8% |
| Cc1cc(C(F)F)n2ncc(C(=O)O)c2n1 | -2.47% |
| Cc1cc(=S)c2ccccc2[nH]1 | 14.9% |
| Cc1nc(C(=O)N2CCCC(C(=O)c3ccc(Cl)cc3)C2)cs1 (stereo not shown) | -16.3% |
| CCN1CCN(CCOc2cccc(Cl)c2Cl)CC1.O=C(O)C(=O)O | -3.27% |
| COc1ccc2c(c1OC)C(=O)N(c1ccc(C)c(C)c1)C2=O | 7.8% |
| CC1CCC(C(=O)NC(C(=O)NCCc2ccc(S(N)(=O)=O)cc2)C(C)C)CC1 (stereo not shown) | -3.08% |
| COc1ccc(N=C2SCCCN2C)cc1.I | 11.7% |
| O=C(CN1C(=O)NC2(CCOc3ccccc32)C1=O)Nc1ccc(Br)cc1F (stereo not shown) | -8.21% |
| CCN(CC)C(=O)CCCOc1ccc(Cl)cc1Cl | -3.88% |
| COc1ccc(-c2nc(N)nc(C(F)(F)F)c2-c2ccccc2OC)c(O)c1 | -0.92% |
| Cc1cccc(-n2c(C)cc(/C=N\NC(=O)c3cccs3)c2C)c1 | 7.32% |
| Cc1[nH]n2cnnc2c(=O)c1Br.O=S(=O)(O)O | 23.1% |
| COc1ccccc1CNC(=O)C1CCN(S(=O)(=O)c2cccc([N+](=O)[O-])c2)CC1 | -3.34% |
| CC(=O)c1cccc(NC(=O)c2cc(Cl)sc2Cl)c1 | 5.28% |
| O=C(Nc1ccc(NC(=O)c2cccs2)cc1)c1ccco1 | 4.64% |
| COc1ccc(CNC(=O)CN2CCN(S(=O)(=O)c3cccs3)CC2)cc1OC | 1.64% |
| CN1CCCC(C(=O)C(C#N)c2ccccc2)C1 (stereo not shown) | 12.4% |
| Cc1cccc(CC(=O)OCn2nnc3ccccc3c2=O)c1 | -25.1% |

| SMILES | hERG current change (%, negative = inhibition) at 10uM |
| --- | --- |
| O=C(c1ccc2c(c1)OCO2)N(c1ccc(Br)cc1)C1C=CS(=O)(=O)C1 (stereo not shown) | -32.4% |
| Oc1cc(O)cc(/C=C/c2ccc(O)cc2O)c1 | 10.2% |
| COCCN1CN(S(=O)(=O)c2cccc(Cl)c2)c2nc3ccccc3nc21 | -27.8% |
| COc1ccc(S(=O)(=O)N2CCN(C(=O)c3ccc(NC(C)=O)cc3)CC2)cc1 | -1.75% |
| COc1ccc(N2C(=O)CC(c3ccccc3)C2=O)cc1 (stereo not shown) | 14.3% |
| COc1ccc(N2C(=O)C3C4c5ccccc5C(C=Nc5ccc(C)cc5C)(c5ccccc54)C3C2=O)cc1 (stereo not shown) | 5.61% |
| O=C(Cn1nnc2ccccc2c1=O)Nc1ccc2c(c1)CCC2 | -16% |
| CCN(CC(=O)Nc1ccc(OC)c(OC)c1)S(=O)(=O)c1ccc(C)cc1 | 10.4% |
| CCC(C(=O)NC1CCCCC1)n1c(SCc2ccc(F)cc2)nc2ccncc21 (stereo not shown) | -9.8% |
| O=C(CSCC(=O)Nc1nccs1)Nc1ccccc1 | 2.45% |
| O=C(CCCOc1ccc(Cl)cc1)N1CCCCCC1 | -10.1% |
| CSc1ccc(S(=O)(=O)NCc2ccc(C)cc2)cc1 | -0.0441% |
| COc1cccc(NC(=O)N2CCCC2C(=O)NC2CCCC2)c1 (stereo not shown) | -1.51% |
| NS(=O)(=O)c1cccc(NC(=S)NC(=O)C23CC4CC(CC(C4)C2)C3)c1 | -16.7% |
| Cc1ccc(C(C)C)c(OCCCN(C)Cc2ccccc2)c1.O=C(O)C(=O)O | -1.11% |
| CCCN(CCC)C(=O)COc1cc(=O)n(CC)c2ccccc12 | 0.179% |
| CCNC(=O)NC(=O)C(C)Sc1nnc(COc2ccccc2Cl)o1 (stereo not shown) | -3.35% |
| COc1ccc(S(=O)(=O)N2CCOCC2)cc1NC(=O)CCCOc1ccc(Cl)cc1C | 7.86% |
| CCCCc1c(C)[nH]c2nc3ccccc3n2c1=O | -0.057% |
| O=C1CCc2cc(S(=O)(=O)Nc3ccccc3)cc3c2N1CCC3 | -6.16% |
| Cc1nnc(SCc2nc3ccccc3s2)n1-c1ccccc1 | 2.82% |
| CC(C)C(NC(=O)C12CC3CC(CC(C3)C1)C2)C(=O)N/N=C/C1=C(N2CCOCC2)C(=C\c2ccc([N+](=O)[O-])cc2)/CC1 (stereo not shown) | -5.32% |
